Results: PubChem BioAssay AID463173 (ICCB-Longwood Screening Facility, Harvard Medical School, 2010)
Among all 52,000 compounds or so, about 4,300 (8.3%) were called active. No stated cut-off is given here; in the data, active means survival mostly below about 52% (no sharp cut-off); inactive means mostly above about 56%. The list shows a part of the results.

These molecules were tested on DeltatarO mutant (assay: growth inhibition of S. aureus wild type versus tarO mutant, primary screen, teichoic acid synthesis inhibitors, RN4220, OD600 (AID 463173)). Details: OD600, 18 h, hits give low values, screened at 18.75 µg/mL (by protocol).

Row | Compound | survival
1 | CCC(=O)N1c2nc(C(C)C)nn2C2(CCCCC2)[C@@H]2CCCC[C@@H]21 | inactive: 81%
2 | CCCNS(=O)(=O)c1ccc(OCC(=O)NCc2ccccn2)cc1 | inactive: 96%
3 | CCCN(C(=O)CCn1cnc2onc(-c3ccc(F)cc3)c2c1=O)c1ccccc1C | inactive: 82%
4 | Cc1ccc(Cl)cc1N1CCN(C(=O)Cn2nc(C)n3c(cc4sccc43)c2=O)CC1 | inactive: 102%
5 | CCOC(=O)c1c(-c2ccccc2)csc1NC(=O)c1cc(-c2cccc(OC)c2)on1 | active: 43%
6 | Cc1cc(C)cc(C(=O)Nc2c3c(nn2-c2ccccc2C)CS(=O)(=O)C3)c1 | inactive: 79%
7 | Cc1cccc(C)c1NC(=O)CSc1nnc(C)n1Cc1ccccc1 | inactive: 93%
8 | Cc1cn2c(=O)cc(COc3cccc(NC(=O)c4cccc(F)c4)c3)nc2s1 | inactive: 79%
9 | COc1ccc(C(=O)Nc2ccc3nc(N4CCCCC4)cc(C)c3c2)c(OC)c1 | active: 44%
10 | COc1ccc(N2CCN(S(=O)(=O)CCNC(=O)Cc3ccc(-c4ccccc4)cc3)CC2)cc1 | inactive: 115%
11 | CCOC(=O)c1c(NC(C)=O)c2c3c(sc2n1Cc1cccc(Cl)c1)CCCC3 | inactive: 104%
12 | Cc1ccc(C(CC(=O)Nc2ccc(C)cc2C)N2Cc3ccccc3C2=O)cc1 (stereo unspecified) | inactive: 94%
13 | CCOC(=O)c1cccc(NC(=O)C2CCN(c3nnc(C)c4c(C)n(-c5ccccc5)nc34)CC2)c1 | inactive: 84%
14 | COc1ccc(Cl)cc1NC(=O)C(C)N1Cc2ccccc2C1=O (stereo unspecified) | inactive: 89%
15 | COc1ccc(NCc2cccn2-c2nnc(N3CCOCC3)s2)c(OC)c1 | inactive: 78%
16 | CCOc1cc(CNC(=O)C(NS(=O)(=O)c2cccs2)C(C)C)cc(OCC)c1OCC (stereo unspecified) | inactive: 66%
17 | O=C(Cn1c(SCc2cccc(F)c2)nc2ccncc21)Nc1ccc(Cl)cc1F | inactive: 52%
18 | CCOc1cc(CNC(=O)c2ccc(NC(=O)c3nsc4ccccc34)cc2)ccc1OC | inactive: 82%
19 | CCN(CC)c1ccc(NC(=O)c2cc(CN3CCCC3)on2)c(C)c1 | inactive: 102%

Row | Compound | survival
20 | CCOc1ccc(NC(=O)CC2C(=O)N(c3cccc(OC)c3)C(=O)N2C2CCCCC2)cc1 (stereo unspecified) | inactive: 68%
21 | CCC(Oc1ccc(F)cc1)C(=O)Nc1cc(-c2ccc(C)cc2)no1 (stereo unspecified) | inactive: 54%
22 | COc1cccc(CNC(=O)Nc2cc(C(=O)NCc3cccc(F)c3)ccc2N2CCCC2)c1 | inactive: 68%
23 | COc1ccc(C(=O)NC2(C(F)(F)F)C(=O)NC(C)=C2C#N)cc1 (stereo unspecified) | inactive: 71%
24 | Cc1cc(C)n2nc(-c3ccccc3)cc2n1 | inactive: 97%
25 | CCc1cccc(NC(=O)Cn2nc(CC)n3c(cc4cc(C)ccc43)c2=O)c1 | inactive: 56%
26 | O=c1oc2ccc3ccccc3c2cc1-c1nnc(Nc2ccccc2)s1 | inactive: 84%
27 | COc1ccc2c(C)c(CC(=O)NCCc3ccccc3)c(=O)oc2c1OC | inactive: 60%
28 | CC1(C)CC(=O)c2cc(C(=O)NC(C)(C)C)c(=O)n(-c3ccccc3)c2C1 | active: 39%
29 | Cc1cc(C)cc(N2C(=O)CC(c3ccc(C(F)(F)F)cc3)C3=C2COC3=O)c1 (stereo unspecified) | inactive: 72%
30 | Cc1cccc(NC(=O)CSc2nc(-c3cccs3)cc(C(F)(F)F)c2C#N)c1 | inactive: 55%
31 | CC(=O)N1CCN(CCN2C(=O)C3C4c5ccccc5C(c5ccccc54)C3C2=O)CC1 (stereo unspecified) | inactive: 94%
32 | CCN1CCN(c2csc3ccc(Cl)cc3c2=O)CC1 | inactive: 80%
33 | COc1ccc(Cn2c(SCC(=O)NCc3ccccc3)nc3ccccc32)cc1 | inactive: 117%
34 | CCOc1ccc(NC(=O)Cn2nnc(C(=O)OC)c2C(=O)OC)cc1 | inactive: 93%
35 | Cc1ccc(C(=O)NCC(=O)OCc2cc(=O)n3nc(C4CCCCC4)sc3n2)cc1 | inactive: 71%
36 | Cc1cccc(OCc2ccc(-c3nc(C#N)c(N4CCN(c5ccccc5)CC4)o3)o2)c1 | inactive: 118%
37 | Cc1ccc(C)c(CN2C(=O)c3ccccc3Sc3ccc(C(=O)NCc4ccco4)cc32)c1 | active: 17%
38 | Cc1cc(C)c2oc(C(=O)Nc3c(C(=O)c4ccc(F)cc4)oc4ccccc34)cc(=O)c2c1 | inactive: 113%

Row | Compound | survival
39 | CCc1cccc(C)c1Nc1c(-c2ccc(N(C)C)cc2)nc2ncccn12 | inactive: 130%
40 | Cc1cc(S(=O)(=O)Nc2cccc(-c3ccc(N4CCOCC4)nn3)c2)c(C)cc1Cl | inactive: 80%
41 | COc1cccc(NC(=O)CSc2nc(O)c(C/C=C/c3ccccc3)c(=O)[nH]2)c1 | inactive: 92%
42 | COc1ccc(N2CCN(S(=O)(=O)c3ccc(-c4cc(C(F)(F)F)on4)s3)CC2)cc1 | inactive: 72%
43 | Cc1ccc(CCNC(=O)c2sc3ncccc3c2-n2cccc2)cc1 | inactive: 103%
44 | CCC(=O)Nc1cc(C(=O)NCc2ccc(C)cc2)ccc1S(=O)(=O)c1ccc(C)cc1 | inactive: 97%
45 | CC(=O)Nc1ccc(OCC(O)Cn2ccnc2)cc1 (stereo unspecified) | inactive: 109%
46 | CCC(C)(C)C(=O)Nc1nnc(COC)s1 | inactive: 97%
47 | O=C(NCCSc1c(-c2ccc(Br)cc2)[nH]c2ccccc12)c1ccc(S(=O)(=O)N2CCOCC2)cc1 | inactive: 72%
48 | Cc1ccc(CNC(=O)C(CC(C)C)N2Cc3ccccc3C2=O)cc1 (stereo unspecified) | inactive: 124%
49 | Cc1cc(C)cc(NC(=O)C(Cc2ccccc2)N2Cc3ccccc3C2=O)c1 (stereo unspecified) | inactive: 81%
50 | Clc1cccc(-n2ncc3c(NCCCc4ccccc4)ncnc32)c1 | inactive: 95%
51 | CCN(CC)c1ccc(NC(=O)Cn2c(C)c3cnn(-c4ccccc4)c(=O)c3c2C)c(C)c1 | inactive: 87%
52 | CCC(C(=O)N1CCN(c2ccccn2)CC1)c1ccccc1 (stereo unspecified) | inactive: 75%
53 | COC(=O)c1c(-c2cccs2)csc1NC(=O)c1cc(OC)cc(OC)c1 | inactive: 69%
54 | CCCCn1c(-c2ccc(S(=O)(=O)N3CCOCC3)cc2)csc1=Nc1ccccc1 | active: 48%
55 | Cc1cccc(Cn2c(CN3CCC(C(=O)NCCc4ccccc4)CC3)cc3ccccc32)c1 | inactive: 120%
56 | COc1ccc(C(=O)Nc2cc(C(F)(F)F)ccc2N2CCN(c3ccccc3)CC2)cc1OC | inactive: 62%
